Laboratory results taken from a collection of fitness landscapes (doi:10.1126/science.1257360).
The other results are listed elsewhere or left out.

B1: PhoQ; a variant is named by its letters at X, in order, P23837 (parent)
chain: MKKLLRLFFPLSLRVRFLLATAAVVLVLSLAYGMVALIGYSVSFDKTTFRLLRGESNLFYTLAKWENNKLHVELPENIDKQSPTMTLIYDENGQLLWAQRDVPWLMKMIQPDWLKSNGFHEIEADVNDTSLLLSGDHSIQQQLQEVREDDDDAEMTHSVAVNVYPATSRMPKLTIVVVDTIPVELKSSYMVWSWFIYVLSANLLLVIPLLWVAAWWSLRPIEALAKEVRELEEHNRELLNPATTRELTSLVRNLNRLLKSERERYDKYRTTLTDLTHSLKTPLXXLQXXLRSLRSEKMSVSDAEPVMLEQISRISQQIGYYLHRASMRGGTLLSRELHPVAPLLDNLTSALNKVYQRKGVNISLDISPEISFVGEQNDFVEVMGNVLDNACKYCLEFVEISARQTDEHLYIVVEDDGPGIPLSKREVIFDRGQRVDTLRPGQGVGLAVAREITEQYEGKIVAGESMLGGARMEVIFGRQHSAPKDE

Variants of: B1
Test: enrichment ratio after two sorts for PhoP signalling (ratio (wild type AVST 3.29)); higher = more functional
Conditions: with PhoP (E. coli)

Variant | enrichment ratio
VINS | ≤ 0.25
MVSF | 3.84
LDFE | ≤ 0.25
HKQC | ≤ 0.25
QWPA | ≤ 0.25
LFAQ | ≤ 0.25
GNLP | ≤ 0.25
NKYY | ≤ 0.25
TFLH | ≤ 0.25
GPFK | ≤ 0.25
SHVK | ≤ 0.25
DRLA | ≤ 0.25
ETIF | ≤ 0.25
ICQL | ≤ 0.25
KIYF | ≤ 0.25
HKQA | ≤ 0.25
RFEG | ≤ 0.25
NDFV | ≤ 0.25
DTHM | ≤ 0.25
EKYV | ≤ 0.25
AELL | 12.1
TFLE | ≤ 0.25
GTDS | ≤ 0.25
SRTV | ≤ 0.25
PDYI | ≤ 0.25
PSEC | ≤ 0.25

Variant | enrichment ratio
TPHP | ≤ 0.25
WSWI | ≤ 0.25
GDMN | ≤ 0.25
LELL | ≤ 0.25
WVEP | ≤ 0.25
ESRK | ≤ 0.25
QDHV | ≤ 0.25
LGRG | ≤ 0.25
FSQM | ≤ 0.25
DHST | ≤ 0.25
YNDC | ≤ 0.25
SYWF | ≤ 0.25
FCGD | ≤ 0.25
ESLA | ≤ 0.25
WWVR | ≤ 0.25
LQYR | ≤ 0.25
ASGF | 8.63
WQFC | ≤ 0.25
PLLE | ≤ 0.25
VQEF | ≤ 0.25
EDFA | ≤ 0.25
DIYH | ≤ 0.25
WDYD | ≤ 0.25
WCIN | ≤ 0.25
AERR | ≤ 0.25
ALGM | 1.85

Variant | enrichment ratio
IVVE | ≤ 0.25
VSLM | 7.64
VGIF | ≤ 0.25
NERL | ≤ 0.25
HDWH | ≤ 0.25
MRME | ≤ 0.25
DGQC | ≤ 0.25
HFCG | ≤ 0.25
IGRN | ≤ 0.25
KFDC | ≤ 0.25
DKHL | ≤ 0.25
LPEA | ≤ 0.25
PPWE | ≤ 0.25
MHIA | ≤ 0.25
LSMW | 1.03
PQFV | ≤ 0.25
AAKF | ≤ 0.25
ISCQ | ≤ 0.25
VTTG | ≤ 0.25
PHMA | ≤ 0.25
PSEQ | ≤ 0.25
DSHK | ≤ 0.25
GRRL | ≤ 0.25
DFQR | ≤ 0.25
GMFA | ≤ 0.25
LQSR | ≤ 0.25

Variant | enrichment ratio
EIQV | ≤ 0.25
NYQQ | ≤ 0.25
DTEI | ≤ 0.25
ATSY | 11
RDSP | ≤ 0.25
MRCW | ≤ 0.25
LSQR | ≤ 0.25
ELGL | ≤ 0.25
WSER | ≤ 0.25
DDET | ≤ 0.25
VIRT | ≤ 0.25
IQSS | ≤ 0.25
KNGQ | ≤ 0.25
WMLA | ≤ 0.25
LSQP | ≤ 0.25
TVQA | 0.404
MRSN | ≤ 0.25
YNTM | ≤ 0.25
NKLD | ≤ 0.25
WMMY | ≤ 0.25
GSFD | ≤ 0.25
WARD | ≤ 0.25
TRWY | ≤ 0.25
RYWR | ≤ 0.25
WYSN | ≤ 0.25
WPCY | ≤ 0.25

Variant | enrichment ratio
ESHG | ≤ 0.25
DCFV | ≤ 0.25
NFYK | ≤ 0.25
QPAF | ≤ 0.25
EGLF | ≤ 0.25
FMVA | ≤ 0.25
WVTS | ≤ 0.25
ELIK | ≤ 0.25
KFMC | ≤ 0.25
TIIK | ≤ 0.25
FQWW | ≤ 0.25
AFDP | ≤ 0.25
DGSM | ≤ 0.25
FWHW | ≤ 0.25
DNGF | ≤ 0.25
RWDR | ≤ 0.25
GHHG | ≤ 0.25
QYGS | ≤ 0.25
MADG | ≤ 0.25
WSWG | ≤ 0.25
PHTM | ≤ 0.25
GDYY | ≤ 0.25
SQQM | 15.9
YHQS | ≤ 0.25
SWSE | ≤ 0.25
AECC | 16.3

Variant | enrichment ratio
QAAL | 3.3
HMTH | ≤ 0.25
SLAW | 5.36
NGDK | ≤ 0.25
ETHS | ≤ 0.25
RAIH | ≤ 0.25
SWWK | ≤ 0.25
TMNR | ≤ 0.25
GCIS | 2.07
MLGY | ≤ 0.25
SMFY | ≤ 0.25
TMHQ | 15.4
FTRD | ≤ 0.25
DRYY | ≤ 0.25
NAPA | ≤ 0.25
AATR | ≤ 0.25
VMQP | ≤ 0.25
FNWV | ≤ 0.25
GQQI | ≤ 0.25
NISY | ≤ 0.25
RKDN | ≤ 0.25
HWNQ | ≤ 0.25
PTTV | ≤ 0.25
